Paper PMC12820563
This is one part of the list. The list includes weakly bound sequences.

Biological target: T1, MBP-FoxP3dN (UniProt Q99JB6)
T1 sequence: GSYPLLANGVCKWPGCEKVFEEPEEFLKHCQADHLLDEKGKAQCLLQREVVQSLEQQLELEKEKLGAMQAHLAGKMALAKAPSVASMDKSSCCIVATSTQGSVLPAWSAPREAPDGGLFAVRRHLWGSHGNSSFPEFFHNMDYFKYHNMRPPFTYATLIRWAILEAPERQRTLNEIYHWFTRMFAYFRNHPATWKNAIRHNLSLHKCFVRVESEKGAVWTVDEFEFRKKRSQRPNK
Assay: PD-seq (MBP pull-down with sequencing)
Conditions: 20 mM Tris-HCl pH 7.5, 100 mM NaCl, 1.5 mM MgCl2, 0.4 uM protein, 0.1 uM dsDNA library, 30 min, room temperature, amylose pull-down; high values mean tight binding; double strand, one strand shown

Row | Sequence | binding signal (RPM ratio (pull-down/input))
1 | GATGATTGTTCTCCCAGCTGATGAATTGACTATCTCGAGTAAACAAATTTTCCTAATCTTTCTGTTCAAGCGCCATCTAC | 0.408
2 | GATGATTGTTCTCCCAGCTGATGAATTAAAGTTTTCGAGTAAACAAATTTTCCTAATCTTTCTGTTCAAGCGCCATCTAC | 0.585
3 | GATGATTGTTCTCCCAGCTGATGAATTTTCTCATTCGAGTAAACAAATTTTCCTAATCTTTCTGTTCAAGCGCCATCTAC | 0.34
4 | GATGATTGTTCTCCCAGCTGATGAATTCATACTCTCGAGTAAACAAATTTTCCTAATCTTTCTGTTCAAGCGCCATCTAC | 0.47
5 | GATGATTGTTCTCCCAGCTGATGAATTTGTGATATCGAGTAAACAAATTTTCCTAATCTTTCTGTTCAAGCGCCATCTAC | 2.2
6 | GATGATTGTTCTCCCAGCTGATGAATTCAGCACGTCGAGTAAACAAATTTTCCTAATCTTTCTGTTCAAGCGCCATCTAC | 1.04
7 | GATGATTGTTCTCCCAGCTGATGAATTGTGACGCTCGAGTAAACAAATTTTCCTAATCTTTCTGTTCAAGCGCCATCTAC | 0.892
8 | GATGATTGTTCTCCCAGCTGATGAATTCAAAAGTTCGAGTAAACAAATTTTCCTAATCTTTCTGTTCAAGCGCCATCTAC | 0.188
9 | GATGATTGTTCTCCCAGCTGATGAATTAGTGCAATCGAGTAAACAAATTTTCCTAATCTTTCTGTTCAAGCGCCATCTAC | 4.39
10 | GATGATTGTTCTCCCAGCTGATGAATTGCACTATTCGAGTAAACAAATTTTCCTAATCTTTCTGTTCAAGCGCCATCTAC | 1.07
11 | GATGATTGTTCTCCCAGCTGATGAATTCCCGACTTCGAGTAAACAAATTTTCCTAATCTTTCTGTTCAAGCGCCATCTAC | 0.448
12 | GATGATTGTTCTCCCAGCTGATGAATTGTCCTATTCGAGTAAACAAATTTTCCTAATCTTTCTGTTCAAGCGCCATCTAC | 0.45
13 | GATGATTGTTCTCCCAGCTGATGAATTAAACGTATCGAGTAAACAAATTTTCCTAATCTTTCTGTTCAAGCGCCATCTAC | 0.564
14 | GATGATTGTTCTCCCAGCTGATGAATTATTAACCTCGAGTAAACAAATTTTCCTAATCTTTCTGTTCAAGCGCCATCTAC | 0.365
15 | GATGATTGTTCTCCCAGCTGATGAATTGCAAACCTCGAGTAAACAAATTTTCCTAATCTTTCTGTTCAAGCGCCATCTAC | 0.69
16 | GATGATTGTTCTCCCAGCTGATGAATTACGTCAGTCGAGTAAACAAATTTTCCTAATCTTTCTGTTCAAGCGCCATCTAC | 0.506
17 | GATGATTGTTCTCCCAGCTGATGAATTAGGATGCTCGAGTAAACAAATTTTCCTAATCTTTCTGTTCAAGCGCCATCTAC | 1.14
18 | GATGATTGTTCTCCCAGCTGATGAATTCCTAGGGTCGAGTAAACAAATTTTCCTAATCTTTCTGTTCAAGCGCCATCTAC | 0.185
19 | GATGATTGTTCTCCCAGCTGATGAATTATCTGCTTCGAGTAAACAAATTTTCCTAATCTTTCTGTTCAAGCGCCATCTAC | 0.299
20 | GATGATTGTTCTCCCAGCTGATGAATTCAGGCCGTCGAGTAAACAAATTTTCCTAATCTTTCTGTTCAAGCGCCATCTAC | 0.452
21 | GATGATTGTTCTCCCAGCTGATGAATTCTAGCGGTCGAGTAAACAAATTTTCCTAATCTTTCTGTTCAAGCGCCATCTAC | 0.331

Row | Sequence | binding signal (RPM ratio (pull-down/input))
22 | GATGATTGTTCTCCCAGCTGATGAATTGCTACAATCGAGTAAACAAATTTTCCTAATCTTTCTGTTCAAGCGCCATCTAC | 0.922
23 | GATGATTGTTCTCCCAGCTGATGAATTCGTCACGTCGAGTAAACAAATTTTCCTAATCTTTCTGTTCAAGCGCCATCTAC | 1.77
24 | GATGATTGTTCTCCCAGCTGATGAATTCACTCTCTCGAGTAAACAAATTTTCCTAATCTTTCTGTTCAAGCGCCATCTAC | 0.325
25 | GATGATTGTTCTCCCAGCTGATGAATTCGACGAATCGAGTAAACAAATTTTCCTAATCTTTCTGTTCAAGCGCCATCTAC | 0.208
26 | GATGATTGTTCTCCCAGCTGATGAATTGCAGTGGTCGAGTAAACAAATTTTCCTAATCTTTCTGTTCAAGCGCCATCTAC | 0.85
27 | GATGATTGTTCTCCCAGCTGATGAATTTTGCTTTTCGAGTAAACAAATTTTCCTAATCTTTCTGTTCAAGCGCCATCTAC | 4.96
28 | GATGATTGTTCTCCCAGCTGATGAATTCTGTCGCTCGAGTAAACAAATTTTCCTAATCTTTCTGTTCAAGCGCCATCTAC | 0.926
29 | GATGATTGTTCTCCCAGCTGATGAATTTGTTTTCTCGAGTAAACAAATTTTCCTAATCTTTCTGTTCAAGCGCCATCTAC | 7.21
30 | GATGATTGTTCTCCCAGCTGATGAATTATGTAGTTCGAGTAAACAAATTTTCCTAATCTTTCTGTTCAAGCGCCATCTAC | 3.34
31 | GATGATTGTTCTCCCAGCTGATGAATTTTTCTCGTCGAGTAAACAAATTTTCCTAATCTTTCTGTTCAAGCGCCATCTAC | 0.232
32 | GATGATTGTTCTCCCAGCTGATGAATTCTCCTAGTCGAGTAAACAAATTTTCCTAATCTTTCTGTTCAAGCGCCATCTAC | 0.164
33 | GATGATTGTTCTCCCAGCTGATGAATTTCCTCATTCGAGTAAACAAATTTTCCTAATCTTTCTGTTCAAGCGCCATCTAC | 0.295
34 | GATGATTGTTCTCCCAGCTGATGAATTGTCCTGCTCGAGTAAACAAATTTTCCTAATCTTTCTGTTCAAGCGCCATCTAC | 0.341
35 | GATGATTGTTCTCCCAGCTGATGAATTTATGTCCTCGAGTAAACAAATTTTCCTAATCTTTCTGTTCAAGCGCCATCTAC | 2.91
36 | GATGATTGTTCTCCCAGCTGATGAATTAATACCTTCGAGTAAACAAATTTTCCTAATCTTTCTGTTCAAGCGCCATCTAC | 0.464
37 | GATGATTGTTCTCCCAGCTGATGAATTGCTTTTCTCGAGTAAACAAATTTTCCTAATCTTTCTGTTCAAGCGCCATCTAC | 1.42
38 | GATGATTGTTCTCCCAGCTGATGAATTCTAAGAATCGAGTAAACAAATTTTCCTAATCTTTCTGTTCAAGCGCCATCTAC | 0.205
39 | GATGATTGTTCTCCCAGCTGATGAATTTTATTGGTCGAGTAAACAAATTTTCCTAATCTTTCTGTTCAAGCGCCATCTAC | 4.94
40 | GATGATTGTTCTCCCAGCTGATGAATTTTGGGTGTCGAGTAAACAAATTTTCCTAATCTTTCTGTTCAAGCGCCATCTAC | 0.805
41 | GATGATTGTTCTCCCAGCTGATGAATTTAAGGACTCGAGTAAACAAATTTTCCTAATCTTTCTGTTCAAGCGCCATCTAC | 0.291
42 | GATGATTGTTCTCCCAGCTGATGAATTCAAGTGTTCGAGTAAACAAATTTTCCTAATCTTTCTGTTCAAGCGCCATCTAC | 0.65

Row | Sequence | binding signal (RPM ratio (pull-down/input))
43 | GATGATTGTTCTCCCAGCTGATGAATTTTCCGCTTCGAGTAAACAAATTTTCCTAATCTTTCTGTTCAAGCGCCATCTAC | 0.322
44 | GATGATTGTTCTCCCAGCTGATGAATTTTCGCGTTCGAGTAAACAAATTTTCCTAATCTTTCTGTTCAAGCGCCATCTAC | 1.45
45 | GATGATTGTTCTCCCAGCTGATGAATTCGCGCATTCGAGTAAACAAATTTTCCTAATCTTTCTGTTCAAGCGCCATCTAC | 7.06
46 | GATGATTGTTCTCCCAGCTGATGAATTATGTCTGTCGAGTAAACAAATTTTCCTAATCTTTCTGTTCAAGCGCCATCTAC | 1.14
47 | GATGATTGTTCTCCCAGCTGATGAATTAATATGATCGAGTAAACAAATTTTCCTAATCTTTCTGTTCAAGCGCCATCTAC | 0.516
48 | GATGATTGTTCTCCCAGCTGATGAATTGGATACTTCGAGTAAACAAATTTTCCTAATCTTTCTGTTCAAGCGCCATCTAC | 0.546
49 | GATGATTGTTCTCCCAGCTGATGAATTATCATTGTCGAGTAAACAAATTTTCCTAATCTTTCTGTTCAAGCGCCATCTAC | 0.763
50 | GATGATTGTTCTCCCAGCTGATGAATTTCATACTTCGAGTAAACAAATTTTCCTAATCTTTCTGTTCAAGCGCCATCTAC | 0.392
51 | GATGATTGTTCTCCCAGCTGATGAATTCCTCGGCTCGAGTAAACAAATTTTCCTAATCTTTCTGTTCAAGCGCCATCTAC | 0.2
52 | GATGATTGTTCTCCCAGCTGATGAATTACACTGCTCGAGTAAACAAATTTTCCTAATCTTTCTGTTCAAGCGCCATCTAC | 0.531
53 | GATGATTGTTCTCCCAGCTGATGAATTATAGGAATCGAGTAAACAAATTTTCCTAATCTTTCTGTTCAAGCGCCATCTAC | 0.252
54 | GATGATTGTTCTCCCAGCTGATGAATTGAGTCGCTCGAGTAAACAAATTTTCCTAATCTTTCTGTTCAAGCGCCATCTAC | 0.434
55 | GATGATTGTTCTCCCAGCTGATGAATTGTGGCCCTCGAGTAAACAAATTTTCCTAATCTTTCTGTTCAAGCGCCATCTAC | 1.26
56 | GATGATTGTTCTCCCAGCTGATGAATTACGTTGTTCGAGTAAACAAATTTTCCTAATCTTTCTGTTCAAGCGCCATCTAC | 2.95
57 | GATGATTGTTCTCCCAGCTGATGAATTCCCGAATTCGAGTAAACAAATTTTCCTAATCTTTCTGTTCAAGCGCCATCTAC | 0.594
58 | GATGATTGTTCTCCCAGCTGATGAATTACATGGTTCGAGTAAACAAATTTTCCTAATCTTTCTGTTCAAGCGCCATCTAC | 0.673
59 | GATGATTGTTCTCCCAGCTGATGAATTAACTCAATCGAGTAAACAAATTTTCCTAATCTTTCTGTTCAAGCGCCATCTAC | 0.243
60 | GATGATTGTTCTCCCAGCTGATGAATTTGAGCCGTCGAGTAAACAAATTTTCCTAATCTTTCTGTTCAAGCGCCATCTAC | 0.386
61 | GATGATTGTTCTCCCAGCTGATGAATTCGTAAGATCGAGTAAACAAATTTTCCTAATCTTTCTGTTCAAGCGCCATCTAC | 0.243
62 | GATGATTGTTCTCCCAGCTGATGAATTAACATCATCGAGTAAACAAATTTTCCTAATCTTTCTGTTCAAGCGCCATCTAC | 0.823
63 | GATGATTGTTCTCCCAGCTGATGAATTTGAAAGCTCGAGTAAACAAATTTTCCTAATCTTTCTGTTCAAGCGCCATCTAC | 0.254
